Screen size: about 310,000 compounds; about 2,200 (0.71%) showed an effect of 50% or more. Effects have a minus sign here. The list shows a part of the results.
Target: human ether-à-go-go-related gene (hERG) potassium channel (human, UniProt Q12809)
Test: primary screen, population patch clamp on CHO cells stably expressing hERG

human ether-à-go-go-related gene (hERG) potassium channel, sequence (Q12809 whole entry, looked up): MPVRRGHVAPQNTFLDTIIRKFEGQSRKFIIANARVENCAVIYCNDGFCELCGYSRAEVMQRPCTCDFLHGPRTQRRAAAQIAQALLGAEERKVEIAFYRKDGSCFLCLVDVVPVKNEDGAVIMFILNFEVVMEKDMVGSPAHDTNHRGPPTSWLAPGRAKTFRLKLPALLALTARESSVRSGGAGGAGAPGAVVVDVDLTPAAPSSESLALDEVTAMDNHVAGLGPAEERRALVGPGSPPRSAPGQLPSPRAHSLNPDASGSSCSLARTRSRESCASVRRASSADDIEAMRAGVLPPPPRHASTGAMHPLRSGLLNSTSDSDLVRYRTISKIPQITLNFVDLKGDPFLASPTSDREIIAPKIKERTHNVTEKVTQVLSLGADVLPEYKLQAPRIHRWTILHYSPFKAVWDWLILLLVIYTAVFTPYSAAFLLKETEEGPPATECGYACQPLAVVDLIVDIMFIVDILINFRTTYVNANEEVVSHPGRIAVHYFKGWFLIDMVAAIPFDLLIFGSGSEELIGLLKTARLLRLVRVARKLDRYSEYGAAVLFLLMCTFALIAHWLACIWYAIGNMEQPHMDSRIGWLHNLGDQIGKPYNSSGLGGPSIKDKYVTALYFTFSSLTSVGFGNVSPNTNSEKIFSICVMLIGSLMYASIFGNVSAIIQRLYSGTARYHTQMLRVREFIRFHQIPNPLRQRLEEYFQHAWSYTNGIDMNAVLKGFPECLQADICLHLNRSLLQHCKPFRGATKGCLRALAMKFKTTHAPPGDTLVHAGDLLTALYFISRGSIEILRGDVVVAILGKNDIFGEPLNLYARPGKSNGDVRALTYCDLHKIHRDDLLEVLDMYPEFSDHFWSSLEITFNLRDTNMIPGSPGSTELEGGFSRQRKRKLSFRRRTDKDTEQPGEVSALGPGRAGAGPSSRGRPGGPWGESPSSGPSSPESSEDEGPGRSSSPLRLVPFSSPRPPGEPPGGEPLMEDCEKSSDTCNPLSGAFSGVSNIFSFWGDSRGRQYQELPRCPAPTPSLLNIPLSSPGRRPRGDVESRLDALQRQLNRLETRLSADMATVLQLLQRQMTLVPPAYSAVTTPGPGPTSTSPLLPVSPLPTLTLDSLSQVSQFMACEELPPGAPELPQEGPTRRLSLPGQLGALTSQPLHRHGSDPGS

Row | Structure (SMILES) | hERG current change (%, negative = inhibition) at 1uM [%]
1 | Cc1nn(CC(=O)Nc2ccc(C(=O)N(C)C)cc2)c(=O)c2ccccc12 | 15.6
2 | Cc1ccc(NC(=O)C(C)c2ccc([N+](=O)[O-])cc2)cc1Cl (centres unmarked) | -3.06
3 | CCN1CCN(CC(=O)c2c[nH]c3ccccc23)CC1 | 3.32
4 | COc1ccc(OC)c(/C=N/NC(=O)CN2CCSCC2)c1 | -2.03
5 | NCCCn1cnc2ccccc21 | 14.8
6 | Cc1cc(OCC(=O)OCC(=O)N2c3ccccc3NC(=O)C2(C)C)ccc1Cl | 14.7
7 | CC1CN(c2oc(-c3ccco3)nc2C#N)CC(C)O1 (centres unmarked) | 6.96
8 | c1ccc(Cn2nnnc2C(c2ccccc2)N2CCN(c3nc4ccccc4s3)CC2)cc1 (centres unmarked) | 11.1
9 | CC1(C)CC2(CCO1)C(Nc1ccccc1)=NC(=S)N2CC(N)=O (centres unmarked) | 11.8
10 | CCn1c(N)c(C(=O)NCc2cccnc2)sc1=S | 3.53
11 | CCCCCOCC1CC(C/C(C)=N/NC(N)=O)(C(=O)OCC)C(=O)O1 (centres unmarked) | 5.89
12 | CC(C)C(=O)NC(NCC1CCCO1)C(Cl)(Cl)Cl (centres unmarked) | 15.7
13 | COc1cccc(N2CCN(c3ccc4nnc(CCC(=O)Nc5cccc(C(C)=O)c5)n4n3)CC2)c1 | 0.828
14 | CCOc1ccccc1NS(=O)(=O)c1ccc2c(c1)N(C)CCO2 | 10.1
15 | CO/N=C(\C(=O)N[C@@H]1C(=O)N2C(C(=O)[O-])=C(COC(N)=O)CS[C@H]12)c1ccco1.[Na+] | 14
16 | COc1ccccc1C(C)N(C)Cc1nc(COc2ccccc2)no1 (centres unmarked) | 16.2
17 | CC(=O)Nc1ccc2c(c1)C(=O)N(c1cccc(C)c1)C2=O | 8.62
18 | CC(C)CC(=O)N1CCN(S(=O)(=O)c2ccc3ccccc3c2)CC1 | 4.05
19 | CC1=C(C(=O)N2CCCCCC2)C2(CCC(C)CC2)OC1=O (centres unmarked) | 8.36
20 | CC(C)COc1ccc(C(=O)N/N=C/c2ccoc2)cc1 | 4.93

Row | Structure (SMILES) | hERG current change (%, negative = inhibition) at 1uM [%]
21 | CCc1ccccc1NC(=O)CC(NCc1ccccc1)C(=O)O (centres unmarked) | 14.9
22 | Cc1cc(C)c(NC(=O)CCCN2CCN(C)CC2)c(C)c1 | -4.87
23 | Cc1cc(C)cc(NC(=O)N2CCNC(=O)C2CC(=O)Nc2cc(Cl)ccc2Cl)c1 (centres unmarked) | 0.0632
24 | CCCCS(=O)(=O)NC1=NCN(CC)CN1 | 12.2
25 | COc1ccccc1NC(=O)CN1C(=O)COc2ccc(S(=O)(=O)N3CCOCC3)cc21 | 8.74
26 | COc1cccc(/C=N/n2c(-c3cc(C)[nH]n3)n[nH]c2=S)c1OC | 13.9
27 | COc1ccc(-n2c(C)nc3c(cnn3-c3ccc(C)c(C)c3)c2=O)cc1 | -3.3
28 | Cc1ccc(SCc2cn3c(C)cc(C)nc3n2)cc1 | -8.39
29 | O=C(O/N=C/c1cccc([N+](=O)[O-])c1)C1CC1 | 13.8
30 | O=C(CCc1nnc2n(Cc3ccc(Cl)cc3)c(=O)c3ccccc3n12)NCCN1CCCC1 | -28.6
31 | COc1ccc(N2C(=O)CC(N3CCN(C(=O)c4ccco4)CC3)C2=O)cc1 (centres unmarked) | 8.21
32 | Cc1cc(NC(=O)CSc2nnc(-c3ccccc3)n2C)no1 | 14.7
33 | CCc1ccc(NC(=O)C2CC(=O)N=C(N)S2)cc1 (centres unmarked) | 10.7
34 | Nc1ccccc1C(=O)NC12CC3CC(CC(C3)C1)C2 | 13.5
35 | COc1ccc(C(=O)C(CN2CCOCC2)c2ccccc2)cc1.Cl (centres unmarked) | 2.83
36 | CSCCC(C(=O)NCc1cccs1)N1C(=O)c2ccccc2C1=O (centres unmarked) | 6.56
37 | CCNC(=O)CC1SC(=Nc2ccc(C)cc2)NC1=O (centres unmarked) | 14.2
38 | Cn1c([N+](=O)[O-])cnc1N1CCN(c2nncs2)C1=O | 3.39
39 | CCOc1ccc(CCNC(=O)COC(=O)c2sccc2C)cc1OCC | 10.7
40 | CCC(C(=O)NCc1ccco1)n1nc(C)c2c(C)n(-c3ccc(C)cc3)nc2c1=O (centres unmarked) | -9.7

Row | Structure (SMILES) | hERG current change (%, negative = inhibition) at 1uM [%]
41 | O=C(CN1CCN(Cc2cccc(Cl)c2)C1=O)NCC1CCCO1 (centres unmarked) | 8.62
42 | O=C(Nc1ccc(F)cc1)c1ccc(S(=O)(=O)NCC2CCCO2)cc1 (centres unmarked) | 12.5
43 | COc1ccc(OC)c(N/C=C/C(=O)c2ccc(OC)c(OC)c2)c1 | 13.1
44 | CC(C)Cc1nnc(NC(=O)CS(=O)(=O)Cc2ccccc2)s1 | 15.1
45 | CN(C)S(=O)(=O)c1cccc(NC(=O)CCCSc2ccccc2)c1 | 7.13
46 | COC(=O)c1ccc(N2C(=O)Nc3ccccc3N2O)cc1 | 12.7
47 | FC(F)(F)c1cc(-c2ccco2)nc(NCCc2ccccc2)n1 | 11.4
48 | O=C(c1ccco1)c1cn(CC(=O)N2CCCC2)c2ccccc12 | 6.91
49 | Cc1cc(Cl)ccc1N1C(=O)CC(NNC(=O)c2cccnc2)C1=O (centres unmarked) | 2.19
50 | COCCNC(=O)Cn1cc(C(=S)N2CCOCC2)c2ccccc21 | 6.79
51 | Cc1ccccc1N1CC(O)(c2cccs2)[N+]2=C1CCCC2.[Br-] (centres unmarked) | -2.75
52 | CCn1c(SCC(=O)Nc2ccc3c(c2)OCCO3)nnc1-c1ccco1 | 9.44
53 | COc1ccc(CNC(=O)COC(=O)C(CCSC)NC(=O)c2ccco2)cc1OC (centres unmarked) | 10.7
54 | O=C(c1cccc([N+](=O)[O-])c1)c1ccccn1 | 8.37
55 | Cc1c(CN2CCN(C)C(CCO)C2)[nH]c2c(Cl)cccc12 (centres unmarked) | -5.03
56 | COc1ccc(NC(=O)c2cc3ccccn3n2)cc1 | -3.79
57 | C/C(=N/NC(=O)CNC(=O)c1cccnc1)c1ccc(Cl)cc1 | 9.47
58 | CCc1nnc2n1N=C(c1ccc(-c3cc(Cl)ccc3Cl)o1)CS2 | 15.9
59 | COc1cc(OC)cc(C(=O)N2CCCc3ccccc32)c1 | 4.31

From paper PMC4336329 (PLoS ONE, 2015)
